From the BET-seq Pho4 binding data (Le et al. 2018)
Some of the results follow. The energies were worked out here from pooled read counts, against the library average; single values are noisy.

Each sequence was assayed against T1, Pho4 (S. cerevisiae) (UniProt P07270) (assay: relative binding free energy (BET-seq); higher = weaker binding). Details: reference: library average.
T1 sequence: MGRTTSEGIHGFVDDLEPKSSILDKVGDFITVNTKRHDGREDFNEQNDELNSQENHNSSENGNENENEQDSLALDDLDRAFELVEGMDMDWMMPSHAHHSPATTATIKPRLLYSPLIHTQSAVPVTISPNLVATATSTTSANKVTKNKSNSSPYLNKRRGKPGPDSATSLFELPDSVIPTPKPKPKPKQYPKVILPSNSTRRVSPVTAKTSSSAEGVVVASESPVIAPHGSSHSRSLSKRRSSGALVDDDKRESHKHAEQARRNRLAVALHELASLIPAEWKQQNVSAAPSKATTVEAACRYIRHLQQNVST

| Sequence | relative binding free energy |
| --- | --- |
| GGTTTCACGTGAGATG | 0.44 kcal/mol |
| GCTGTCACGTGGGCGT | 0.04 kcal/mol |
| CGTGACACGTGGTTTA | -0.11 kcal/mol |
| AGTTGCACGTGCTGTA | -0.11 kcal/mol |
| GGTTACACGTGTGGCT | 0.19 kcal/mol |
| GGTATCACGTGTGGCC | 0.2 kcal/mol |
| ATTTGCACGTGAGGGG | 0.14 kcal/mol |
| GTGGTCACGTGTGTGC | 0.1 kcal/mol |
| AATGGCACGTGAGTTT | 0.19 kcal/mol |
| GCGTTCACGTGGCGGG | 0.1 kcal/mol |
| TCCTTCACGTGGGGTT | 0.04 kcal/mol |
| TAATTCACGTGGCGTA | 0.17 kcal/mol |
| TTGATCACGTGTAATT | 0.23 kcal/mol |
| AGTAGCACGTGAAAGG | 0.18 kcal/mol |
| TGAATCACGTGAGGTA | 0.4 kcal/mol |
| GGGATCACGTGGGTTG | 0.05 kcal/mol |
| TTTGTCACGTGGCGTA | 0.08 kcal/mol |
| GATCGCACGTGAAGGG | 0.28 kcal/mol |
| GTGGGCACGTGACGTC | 0.12 kcal/mol |
| ATAGCCACGTGGTAGT | -0.07 kcal/mol |
| TGCGTCACGTGTATTA | 0.24 kcal/mol |
| TAAGGCACGTGAAGGA | 0.18 kcal/mol |
| AGGAACACGTGTTAAG | 0.08 kcal/mol |

| Sequence | relative binding free energy |
| --- | --- |
| ATCTTCACGTGCATGT | 0.32 kcal/mol |
| CTTGGCACGTGTGCGT | -0.22 kcal/mol |
| GGTGGCACGTGAGCAG | -0.01 kcal/mol |
| GTGGTCACGTGGTGGG | 0.13 kcal/mol |
| AAGGTCACGTGAAGAT | 0.16 kcal/mol |
| AGGGGCACGTGATTTG | -0.08 kcal/mol |
| TAGACCACGTGTTTGT | -0.07 kcal/mol |
| ATGGGCACGTGGGGAC | -0.17 kcal/mol |
| TTAATCACGTGTGTAC | 0.22 kcal/mol |
| AGGTTCACGTGCACGT | 0.26 kcal/mol |
| TGAAGCACGTGCTTTG | -0.18 kcal/mol |
| GGTTGCACGTGCTATT | 0.04 kcal/mol |
| GTGGTCACGTGATGCA | 0.36 kcal/mol |
| GTAGACACGTGTAAGG | -0.04 kcal/mol |
| GGGAGCACGTGGTGAG | -0.13 kcal/mol |
| GGGCTCACGTGGAATA | 0.48 kcal/mol |
| TATTTCACGTGGAATG | 0.38 kcal/mol |
| AGGGGCACGTGCATAG | -0.28 kcal/mol |
| AGGGCCACGTGGGACG | -0.18 kcal/mol |
| GGTGGCACGTGTGCAC | -0.12 kcal/mol |
| TGTAGCACGTGAGCTA | 0.13 kcal/mol |
| CGGATCACGTGGTCGG | -0.02 kcal/mol |
| ATGGTCACGTGAATGT | 0.25 kcal/mol |

| Sequence | relative binding free energy |
| --- | --- |
| TTGCGCACGTGGTAGG | -0.08 kcal/mol |
| GATTGCACGTGGTGCA | 0.06 kcal/mol |
| TTAATCACGTGTGATG | 0.36 kcal/mol |
| CGGTCCACGTGAGTGT | 0.15 kcal/mol |
| TGTGGCACGTGTGCCG | 0.02 kcal/mol |
| TGGAGCACGTGATTAT | 0.15 kcal/mol |
| TAATGCACGTGGATTA | -0.02 kcal/mol |
| GATTACACGTGTATAG | 0.14 kcal/mol |
| GTTGACACGTGTGAGT | 0.17 kcal/mol |
| GGATACACGTGAATGG | 0.28 kcal/mol |
| AGTTGCACGTGGGGGT | -0.16 kcal/mol |
| GGTTGCACGTGGTGCA | -0.05 kcal/mol |
| AGTTCCACGTGAGGGT | 0.27 kcal/mol |
| CGGTTCACGTGGAGTA | 0.4 kcal/mol |
| CAGGTCACGTGAGGGA | 0.2 kcal/mol |
| ATTGCCACGTGGGTGA | -0.24 kcal/mol |
| GAGGCCACGTGGTATG | -0.18 kcal/mol |
| ATGGGCACGTGGGATA | -0.13 kcal/mol |
| TTTTACACGTGTCGTG | 0.11 kcal/mol |
| GTCTGCACGTGGCGGG | -0.14 kcal/mol |
| AGAGCCACGTGTTGTG | -0.14 kcal/mol |
| TTAGTCACGTGGGCCT | -0.04 kcal/mol |
| AAAGGCACGTGGCGAG | -0.08 kcal/mol |

| Sequence | relative binding free energy |
| --- | --- |
| GGGGACACGTGGGGGC | -0.05 kcal/mol |
| TGAGCCACGTGTGGTA | 0.1 kcal/mol |
| TTGTGCACGTGGTACA | -0.18 kcal/mol |
| ATATACACGTGGGGGG | -0.07 kcal/mol |
| GAGGGCACGTGCGCGG | -0.2 kcal/mol |
| GTTTGCACGTGGGCGA | 0.02 kcal/mol |
| TTGATCACGTGGATAG | 0.14 kcal/mol |
| ACTTGCACGTGGGCTG | -0.18 kcal/mol |
| TGGGCCACGTGTGCAG | -0.17 kcal/mol |
| TTGGACACGTGTATTT | 0.19 kcal/mol |
| GTGGCCACGTGAGTTT | 0.31 kcal/mol |
| TGTGCCACGTGTAGGC | -0.1 kcal/mol |
| CAATGCACGTGTTATG | 0 kcal/mol |
| GTTTGCACGTGCAGCG | 0.11 kcal/mol |
| CTGGGCACGTGTAGCG | 0.03 kcal/mol |
| TAGTTCACGTGTCTGT | 0.27 kcal/mol |
| GTAGTCACGTGTCCGG | 0.15 kcal/mol |
| GATAGCACGTGTAAGT | 0.11 kcal/mol |
| TTTAACACGTGATTTT | 0.12 kcal/mol |
| GTTACCACGTGTGTTG | -0.04 kcal/mol |
| TATTGCACGTGTACGG | 0.1 kcal/mol |
| ACTTGCACGTGTTATG | 0.02 kcal/mol |
| ATAGTCACGTGCGTTT | 0.21 kcal/mol |

| Sequence | relative binding free energy |
| --- | --- |
| ATTGCCACGTGTGTGG | -0.03 kcal/mol |
| CTCGACACGTGGGTGT | -0.18 kcal/mol |
| ATGTTCACGTGCGTGA | 0.31 kcal/mol |
| GGGGGCACGTGAAAGC | 0.17 kcal/mol |
| TATTACACGTGGAGCG | 0.09 kcal/mol |
| AGCGTCACGTGGCAGG | -0.08 kcal/mol |
| ATTATCACGTGACGTG | 0.2 kcal/mol |
| GGCGGCACGTGTAGAA | 0.05 kcal/mol |
| GCTGTCACGTGGGTGA | -0.04 kcal/mol |
| TGGTGCACGTGTGGCC | -0.02 kcal/mol |
| TCCGGCACGTGGTATG | -0.24 kcal/mol |
| ATTGACACGTGGTTTT | -0.06 kcal/mol |
| TGGTTCACGTGTAACG | 0.24 kcal/mol |
| ATTTGCACGTGTATGT | -0.01 kcal/mol |
| TGAGTCACGTGCGTGC | 0.11 kcal/mol |
| ATTATCACGTGAGCGG | 0.34 kcal/mol |
| TTAAGCACGTGAGGTG | 0.1 kcal/mol |
| CTATTCACGTGGCGGT | 0.24 kcal/mol |
| AGAGTCACGTGGCTTT | -0.01 kcal/mol |
| GTGAGCACGTGCGGGA | -0.06 kcal/mol |
| TTTGTCACGTGTGATT | 0.34 kcal/mol |
| GATAACACGTGAGGAG | 0.28 kcal/mol |
| AGGGCCACGTGTAGTG | 0 kcal/mol |
